Results on 167 variants are retold here after the RNAGym collection of RNA variant scans (doi:10.7554/elife.90254).

The source gives no read counts; variants with many changes may rest on few reads.

Sequences and labels used below:
B1: LINE1-mini (parent)
chain: GGCAGAGCUCAACACAGCGUGGCAAAGUGGCUGUGGCUAGACUGCC

The series covers variants of B1. In words: self-cleavage, relative activity (ratio to wild type); higher = more cleavage; in vitro, sequencing; the parent is a self-cleaving ribozyme.
In the case of C8G C18U C37A A39G, the self-cleavage is 0.03.

As for G2C G19A G29A A39G, the self-cleavage worked out at 0.02.

As to C3U C15A A25G A26G, the self-cleavage came out at 0.04.

For the variant G2A C3U G7A, the self-cleavage came to 0.65.

In the case of G1U A24U G33A G44C, the self-cleavage amounted to 0.05.

As for C23U A24C A39G, the self-cleavage was 0.06.

With C8U G19C U38C G40C, the self-cleavage is 0.02.

In the case of G7A A24G U28A, the self-cleavage stood at 0.17.

As to A6G G33C A41U, the self-cleavage is 0.03.

Turning to G1U G19U G33A, the self-cleavage amounted to 0.07.

With G1U C8A A11C G44U C46A, the self-cleavage is 0.02.

In the case of C23A G29U A39C C46G, the self-cleavage worked out at 0.04.

Regarding C18A G27U U28C, the self-cleavage was determined as 0.04.

Take G1U G19A U20G: the self-cleavage worked out at 0.25.

On to A11C U20A G44C, for which the self-cleavage worked out at 0.02.

For the variant G2C U9C A12U U34G, the self-cleavage was 0.01.

Turning to G5A G35U C37A G44A, the self-cleavage was determined as 0.11.

Turning to C15A G17U A26C G33U, the self-cleavage came to 0.09.

For G33C G36U A41U, the self-cleavage is 0.

With U9G G27C G33A, the self-cleavage was 0.

Take A11G C15A G17A G19C A24G G36U: the self-cleavage was found to be 0.02.

As for G7A A12U A14C, the self-cleavage was determined as 0.16.

In the case of A12U U20A G40A, the self-cleavage stood at 0.1.

G2C C3G G22U U32A: the self-cleavage came out at 0.06.

On to C13A A14C C23A, for which the self-cleavage was 0.81.

Consider U9G A14G G19C A25C U28C G29A U34G U38C G40A, for which the self-cleavage came to 0.06.

Regarding U9C A41G C45A, the self-cleavage was 0.03.

With C13G G35U G36A, the self-cleavage was 0.44.

Turning to C15U G29U G30U G44A, the self-cleavage was found to be 0.01.

Regarding G5A G21U G30A, the self-cleavage was found to be 0.64.

As to C13A G21U G35A, the self-cleavage turned out to be 0.06.

In the case of U20G G21U U34C U43G G44A, the self-cleavage came to 0.05.

As to G21C A24G G29U C37A, the self-cleavage was 0.02.

As to G7U A24U A25C C42U, the self-cleavage turned out to be 0.37.

As for G17C G44C C46G, the self-cleavage came out at 0.

With C8G A14C C18U, the self-cleavage came out at 0.03.

As for C18U G19U G22U C23G U34A C46G, the self-cleavage is 0.01.

On to A4C G17U C37G C46G, for which the self-cleavage was 0.06.

Consider G2C C3A G22U, for which the self-cleavage came to 0.04.

Regarding C8A C18G C37G, the self-cleavage was found to be 0.57.

For the variant C3G G19U G21U G22A G27U U43C, the self-cleavage came to 0.02.

C8U A12C C18G C46A: the self-cleavage worked out at 0.04.

On to G1C C8A C10U G36U, for which the self-cleavage came to 0.01.

With C10U A14G G36U A39U, the self-cleavage worked out at 0.06.

For G5A U20A G36C, the self-cleavage was 0.03.

As for C8G U20A G35U, the self-cleavage worked out at 0.06.

Turning to C15G C23U C31A G33A, the self-cleavage came out at 0.05.

For the variant C15A G19A A26U G27C C42U, the self-cleavage turned out to be 0.01.

In the case of G2C C10G A14G U43G, the self-cleavage turned out to be 0.03.

As to G19U A24G G29C G33C U38G, the self-cleavage turned out to be 0.07.

In the case of C8U U9C G22A, the self-cleavage stood at 0.08.

Take G5U G29U U38A C46G: the self-cleavage is 0.17.

For the variant G2U G17C G33U U38A A39U, the self-cleavage was 0.03.

Take A6G A24G G35U U38A: the self-cleavage was 0.03.

Consider C15U G19U G35U, for which the self-cleavage amounted to 0.03.

In the case of G5C G33C C46A, the self-cleavage worked out at 0.03.

For C15A G21U C46G, the self-cleavage was 0.02.

Regarding G2A C15U G27U, the self-cleavage was determined as 0.51.

With C10U A12U U28G G35A C45A, the self-cleavage was 0.08.

As for U20G C23U C42U, the self-cleavage amounted to 0.23.

For the variant G2U G5U C13A C18G U32C, the self-cleavage turned out to be 0.02.

In the case of G22C A24U G44U C46U, the self-cleavage was determined as 0.01.

In the case of C3A G5U A6C C10A A16C A41G C42A, the self-cleavage was found to be 0.01.

Regarding G21U A25U G30U C37U, the self-cleavage was determined as 0.03.

Take A16G G19A U20C: the self-cleavage was 0.07.

Regarding A4C U28A G29C U43G, the self-cleavage is 0.02.

Consider G1U U28C G33C U34C, for which the self-cleavage was 0.

For G2A G7C A16G U34G G40C, the self-cleavage was determined as 0.21.

Regarding G5A G7C G27C G35A, the self-cleavage was determined as 0.06.

In the case of U32G G35C C37G, the self-cleavage was 0.02.

Consider A4G C8U A12U U34G, for which the self-cleavage was found to be 0.03.

With A14G U32C C37U C45U, the self-cleavage was found to be 0.01.

Consider C3U G22A G35A C46A, for which the self-cleavage is 0.11.

Take G7U C10U U28C: the self-cleavage is 0.01.

G17A C31A G33C G35U U43C: the self-cleavage was 0.03.

On to G22A G36C G40U, for which the self-cleavage is 0.32.

Consider A24U A26G G27C G40U, for which the self-cleavage amounted to 0.06.

On to U20G G22C U28C U34G G44U, for which the self-cleavage came to 0.03.

With A14G A26C U28A U38A U43A, the self-cleavage is 0.04.

For G5A A24U A25C G30A U43C, the self-cleavage was determined as 0.04.

Consider G7C G19U G21U, for which the self-cleavage was determined as 0.03.

For C3U A11C G29U, the self-cleavage is 0.05.

G17A G22U C23A: the self-cleavage turned out to be 0.11.

For A4C G19A G21U G22A, the self-cleavage came to 0.05.

As for G5C A6U A16U C23U C46A, the self-cleavage worked out at 0.02.

As to A4U G17C G30C, the self-cleavage came out at 0.06.

Regarding C10G G21A C31G, the self-cleavage came to 0.04.

On to C31U U32G C46U, for which the self-cleavage stood at 0.03.

Turning to G21C U28G G44U, the self-cleavage amounted to 0.19.

On to G21C U28G C31U, for which the self-cleavage was 0.92.

Take C8U A12C G29U G35A: the self-cleavage was 0.01.

In the case of G5U C15A A26C, the self-cleavage was determined as 0.06.

C13G C18G G19A C45U: the self-cleavage was 0.17.

In the case of C3A G5C C13U A41G, the self-cleavage came out at 0.05.

As for A4G G7A G30U G36C, the self-cleavage amounted to 0.13.

Take C8A C15A A26U U38G G40U: the self-cleavage is 0.05.

Take G17U G22A U34C A41U: the self-cleavage is 0.11.

For G5C G7A C23A C42U, the self-cleavage turned out to be 0.12.

Regarding A4G A6U C8G C13U C18U, the self-cleavage was 0.02.

For the variant G22A A24G G44U, the self-cleavage worked out at 0.24.

On to C13U G21C A41C, for which the self-cleavage is 0.05.

Take A16C U20C A25G U34C G40U: the self-cleavage was 0.01.

With C13U G35A G44U, the self-cleavage was 0.03.

A4C C8A A16G G19U U34C U38G C45A: the self-cleavage came to 0.02.

Turning to A16C G17C U28C, the self-cleavage worked out at 0.12.

For A4G G19U G22A, the self-cleavage was 0.31.

In the case of G2A C18U U38G, the self-cleavage is 0.14.

On to A4U G19C A26U A41U, for which the self-cleavage came out at 0.32.

Regarding G33A A39C U43C, the self-cleavage amounted to 0.17.

G1A G2A C8U U9C C15A U32G C37U C45A: the self-cleavage stood at 0.1.

For G7U C8A A14U G33U, the self-cleavage amounted to 0.35.

With C3U U20C C37G, the self-cleavage amounted to 0.05.

Regarding A14G A16C G30A C37A, the self-cleavage came out at 0.02.

On to A11U G17C A24G C31U C45G, for which the self-cleavage came out at 0.

In the case of C8U C13U A14C, the self-cleavage was determined as 0.09.

On to G2U G17U A24G, for which the self-cleavage was 0.01.

Consider C10U A16C U20G, for which the self-cleavage turned out to be 0.05.

Regarding A6U A11G A14C, the self-cleavage stood at 0.

Take C18U C31A G44U: the self-cleavage stood at 0.05.

In the case of U32C A39G A41C, the self-cleavage is 0.04.

With A4G A11C U32A G44U, the self-cleavage amounted to 0.03.

Take A4U C15U C18G U20G: the self-cleavage turned out to be 0.02.

As for G1C G5A C8U C18A, the self-cleavage was found to be 0.08.

Turning to C15A A16C C37A G44U, the self-cleavage was determined as 0.14.

For the variant G17C G35C G36U U38A, the self-cleavage turned out to be 0.03.

With G5C A14U A24C, the self-cleavage was 0.

Consider A14C C23A U43G C46A, for which the self-cleavage came out at 0.06.

A25G G27U U34G: the self-cleavage is 0.16.

With G2U C8G C13A C37U, the self-cleavage worked out at 0.05.

In the case of C10U C15A G21C A41C U43A, the self-cleavage turned out to be 0.02.

As to C13G A14U C18A A26G U34G A41U, the self-cleavage was determined as 0.

With A12U A24C G27A, the self-cleavage worked out at 0.38.

For C3U A26G U34G, the self-cleavage is 0.11.

With A4C A6U C8A G21A, the self-cleavage came out at 1.21.

As for G5A A25G G35A, the self-cleavage came to 0.08.

With G19C U20C C31U, the self-cleavage amounted to 0.21.

G2C G5U C18G G29U C37U: the self-cleavage was 0.01.

Turning to G7A C37U U43A, the self-cleavage worked out at 0.03.

On to C18U G44U C46A, for which the self-cleavage was 0.11.

On to G7U G17C G19C C37U, for which the self-cleavage was found to be 0.01.

On to A6C C23U G29U C37G C42U, for which the self-cleavage was 0.01.

In the case of G2A G5U A6C, the self-cleavage amounted to 0.22.

Turning to C3A C8U A11G U32A, the self-cleavage stood at 0.02.

As to G1A A6G G27A C31U, the self-cleavage stood at 0.1.

For the variant G2C C3A G5U A11G C18U U32G U38C, the self-cleavage turned out to be 0.02.

As to G7C U20C G22A U28A, the self-cleavage came out at 0.05.

Take G7A U20G G22A U38G: the self-cleavage was 0.

Turning to G1C G2A U28A G29C U34A, the self-cleavage was determined as 0.03.

Take G1U C23A G35U A41G: the self-cleavage stood at 0.25.

With C8G A16G G19U U20A G22A G35U G36C C45A, the self-cleavage amounted to 0.28.

For C18U U28A C42A, the self-cleavage stood at 0.03.

For G2U C13A C15G G27U, the self-cleavage was determined as 0.01.

With A4C C10A U20A, the self-cleavage is 0.01.

For C3A C13G A25G G29U U32G, the self-cleavage was found to be 0.05.

For C3U C18U C31A, the self-cleavage came to 0.02.

For G5U A41U G44C, the self-cleavage amounted to 0.03.

Turning to C13G A25U C37A A39G, the self-cleavage turned out to be 0.11.

On to C13A A14G G21C U28C, for which the self-cleavage amounted to 0.78.

With G2U U9A A14U A26C U43G, the self-cleavage was determined as 0.

Regarding G5C A41U C46A, the self-cleavage came out at 0.03.

Take C10U A11U G22A G33C: the self-cleavage was 0.

For A4G G30A G40C, the self-cleavage was determined as 0.17.

As to G17C G27A G33C, the self-cleavage was determined as 0.02.

Regarding A6C U20A G35A C37U, the self-cleavage came to 0.08.

With C10A G17A G19A G21A, the self-cleavage is 0.04.

Turning to G2A A6G A16G G21U C37A, the self-cleavage stood at 0.06.

Regarding G21C G27U C37A U38G, the self-cleavage stood at 0.
